We go through 40 sequences from article PMC12820563.

The list shows a part of the results. The list includes weakly bound sequences.

This experiment addresses T1, MBP-FoxP3dN (UniProt Q99JB6).
T1 sequence: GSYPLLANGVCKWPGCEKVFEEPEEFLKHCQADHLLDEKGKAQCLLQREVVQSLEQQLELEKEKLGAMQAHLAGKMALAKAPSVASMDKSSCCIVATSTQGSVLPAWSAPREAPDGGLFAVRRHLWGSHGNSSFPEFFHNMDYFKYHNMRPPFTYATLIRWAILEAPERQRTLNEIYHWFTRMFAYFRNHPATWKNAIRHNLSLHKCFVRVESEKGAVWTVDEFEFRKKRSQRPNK
The experiment in a line: PD-seq (MBP pull-down with sequencing). The note with it: 20 mM Tris-HCl pH 7.5, 100 mM NaCl, 1.5 mM MgCl2, 0.4 uM protein, 0.1 uM dsDNA library, 30 min, room temperature, amylose pull-down; high values mean tight binding; double strand, one strand shown.
Take “GATGATTGTTCTCCCAGCTGATGAATTTCTCACATCGAGTAAACAAATTTTCCTAATCTTTCTGTTCAAGCGCCATCTAC”: the binding signal (RPM ratio (pull-down/input)) came to 0.35.

As for “GATGATTGTTCTCCCAGCTGATGAATTCGAGGTGTCGAGTAAACAAATTTTCCTAATCTTTCTGTTCAAGCGCCATCTAC”, the binding signal (RPM ratio (pull-down/input)) was found to be 0.763.

On to “GATGATTGTTCTCCCAGCTGATGAATTTATACTCTCGAGTAAACAAATTTTCCTAATCTTTCTGTTCAAGCGCCATCTAC”, for which the binding signal (RPM ratio (pull-down/input)) was 0.936.

Regarding “GATGATTGTTCTCCCAGCTGATGAATTGTCATTCTCGAGTAAACAAATTTTCCTAATCTTTCTGTTCAAGCGCCATCTAC”, the binding signal (RPM ratio (pull-down/input)) amounted to 1.1.

“GATGATTGTTCTCCCAGCTGATGAATTAGGCGTATCGAGTAAACAAATTTTCCTAATCTTTCTGTTCAAGCGCCATCTAC”: the binding signal (RPM ratio (pull-down/input)) was determined as 1.26.

As for “GATGATTGTTCTCCCAGCTGATGAATTGCGTATTTCGAGTAAACAAATTTTCCTAATCTTTCTGTTCAAGCGCCATCTAC”, the binding signal (RPM ratio (pull-down/input)) was 3.53.

For “GATGATTGTTCTCCCAGCTGATGAATTATGCCAGTCGAGTAAACAAATTTTCCTAATCTTTCTGTTCAAGCGCCATCTAC”, the binding signal (RPM ratio (pull-down/input)) worked out at 3.15.

As to “GATGATTGTTCTCCCAGCTGATGAATTATTGCGGTCGAGTAAACAAATTTTCCTAATCTTTCTGTTCAAGCGCCATCTAC”, the binding signal (RPM ratio (pull-down/input)) amounted to 0.799.

“GATGATTGTTCTCCCAGCTGATGAATTCCTCACTTCGAGTAAACAAATTTTCCTAATCTTTCTGTTCAAGCGCCATCTAC”: the binding signal (RPM ratio (pull-down/input)) came to 0.282.

Turning to “GATGATTGTTCTCCCAGCTGATGAATTGTCAACATCGAGTAAACAAATTTTCCTAATCTTTCTGTTCAAGCGCCATCTAC”, the binding signal (RPM ratio (pull-down/input)) was found to be 3.6.

As to “GATGATTGTTCTCCCAGCTGATGAATTTTCTATGTCGAGTAAACAAATTTTCCTAATCTTTCTGTTCAAGCGCCATCTAC”, the binding signal (RPM ratio (pull-down/input)) stood at 0.331.

As for “GATGATTGTTCTCCCAGCTGATGAATTCACCTCGTCGAGTAAACAAATTTTCCTAATCTTTCTGTTCAAGCGCCATCTAC”, the binding signal (RPM ratio (pull-down/input)) came out at 0.296.

For “GATGATTGTTCTCCCAGCTGATGAATTGTTAGCTTCGAGTAAACAAATTTTCCTAATCTTTCTGTTCAAGCGCCATCTAC”, the binding signal (RPM ratio (pull-down/input)) stood at 1.56.

Take “GATGATTGTTCTCCCAGCTGATGAATTCTGTTTGTCGAGTAAACAAATTTTCCTAATCTTTCTGTTCAAGCGCCATCTAC”: the binding signal (RPM ratio (pull-down/input)) worked out at 6.99.

Take “GATGATTGTTCTCCCAGCTGATGAATTTCCGCCCTCGAGTAAACAAATTTTCCTAATCTTTCTGTTCAAGCGCCATCTAC”: the binding signal (RPM ratio (pull-down/input)) was 0.63.

For the sequence “GATGATTGTTCTCCCAGCTGATGAATTCATTCGATCGAGTAAACAAATTTTCCTAATCTTTCTGTTCAAGCGCCATCTAC”, the binding signal (RPM ratio (pull-down/input)) worked out at 0.244.

Take “GATGATTGTTCTCCCAGCTGATGAATTTATGTTTTCGAGTAAACAAATTTTCCTAATCTTTCTGTTCAAGCGCCATCTAC”: the binding signal (RPM ratio (pull-down/input)) was found to be 3.55.

Regarding “GATGATTGTTCTCCCAGCTGATGAATTGCGACAATCGAGTAAACAAATTTTCCTAATCTTTCTGTTCAAGCGCCATCTAC”, the binding signal (RPM ratio (pull-down/input)) was 1.06.

Regarding “GATGATTGTTCTCCCAGCTGATGAATTCGTTTTGTCGAGTAAACAAATTTTCCTAATCTTTCTGTTCAAGCGCCATCTAC”, the binding signal (RPM ratio (pull-down/input)) amounted to 3.54.

Regarding “GATGATTGTTCTCCCAGCTGATGAATTGCACAGCTCGAGTAAACAAATTTTCCTAATCTTTCTGTTCAAGCGCCATCTAC”, the binding signal (RPM ratio (pull-down/input)) turned out to be 0.692.

As for “GATGATTGTTCTCCCAGCTGATGAATTGGGGAACTCGAGTAAACAAATTTTCCTAATCTTTCTGTTCAAGCGCCATCTAC”, the binding signal (RPM ratio (pull-down/input)) was 0.256.

For “GATGATTGTTCTCCCAGCTGATGAATTATAGCAATCGAGTAAACAAATTTTCCTAATCTTTCTGTTCAAGCGCCATCTAC”, the binding signal (RPM ratio (pull-down/input)) was determined as 2.17.

In the case of “GATGATTGTTCTCCCAGCTGATGAATTCGTGAGATCGAGTAAACAAATTTTCCTAATCTTTCTGTTCAAGCGCCATCTAC”, the binding signal (RPM ratio (pull-down/input)) was determined as 0.292.

For “GATGATTGTTCTCCCAGCTGATGAATTCGAGGAATCGAGTAAACAAATTTTCCTAATCTTTCTGTTCAAGCGCCATCTAC”, the binding signal (RPM ratio (pull-down/input)) is 0.185.

For the sequence “GATGATTGTTCTCCCAGCTGATGAATTAGAGCAATCGAGTAAACAAATTTTCCTAATCTTTCTGTTCAAGCGCCATCTAC”, the binding signal (RPM ratio (pull-down/input)) amounted to 1.88.

“GATGATTGTTCTCCCAGCTGATGAATTCGATGTATCGAGTAAACAAATTTTCCTAATCTTTCTGTTCAAGCGCCATCTAC”: the binding signal (RPM ratio (pull-down/input)) is 2.15.

For “GATGATTGTTCTCCCAGCTGATGAATTGGGGCCCTCGAGTAAACAAATTTTCCTAATCTTTCTGTTCAAGCGCCATCTAC”, the binding signal (RPM ratio (pull-down/input)) was 0.403.

As to “GATGATTGTTCTCCCAGCTGATGAATTCCAGAGGTCGAGTAAACAAATTTTCCTAATCTTTCTGTTCAAGCGCCATCTAC”, the binding signal (RPM ratio (pull-down/input)) was 0.237.

Regarding “GATGATTGTTCTCCCAGCTGATGAATTAAGAGTGTCGAGTAAACAAATTTTCCTAATCTTTCTGTTCAAGCGCCATCTAC”, the binding signal (RPM ratio (pull-down/input)) was determined as 0.967.

On to “GATGATTGTTCTCCCAGCTGATGAATTGGATATATCGAGTAAACAAATTTTCCTAATCTTTCTGTTCAAGCGCCATCTAC”, for which the binding signal (RPM ratio (pull-down/input)) amounted to 0.715.

Take “GATGATTGTTCTCCCAGCTGATGAATTCAGGGCATCGAGTAAACAAATTTTCCTAATCTTTCTGTTCAAGCGCCATCTAC”: the binding signal (RPM ratio (pull-down/input)) came out at 0.625.

Turning to “GATGATTGTTCTCCCAGCTGATGAATTTTCATCCTCGAGTAAACAAATTTTCCTAATCTTTCTGTTCAAGCGCCATCTAC”, the binding signal (RPM ratio (pull-down/input)) amounted to 0.287.

As to “GATGATTGTTCTCCCAGCTGATGAATTGTGGCAGTCGAGTAAACAAATTTTCCTAATCTTTCTGTTCAAGCGCCATCTAC”, the binding signal (RPM ratio (pull-down/input)) was 1.21.

In the case of “GATGATTGTTCTCCCAGCTGATGAATTAAGCAGTTCGAGTAAACAAATTTTCCTAATCTTTCTGTTCAAGCGCCATCTAC”, the binding signal (RPM ratio (pull-down/input)) worked out at 1.05.

In the case of “GATGATTGTTCTCCCAGCTGATGAATTACCTTGCTCGAGTAAACAAATTTTCCTAATCTTTCTGTTCAAGCGCCATCTAC”, the binding signal (RPM ratio (pull-down/input)) stood at 0.354.

As for “GATGATTGTTCTCCCAGCTGATGAATTTTGTAGTTCGAGTAAACAAATTTTCCTAATCTTTCTGTTCAAGCGCCATCTAC”, the binding signal (RPM ratio (pull-down/input)) was determined as 4.32.

For the sequence “GATGATTGTTCTCCCAGCTGATGAATTTTTGCCTTCGAGTAAACAAATTTTCCTAATCTTTCTGTTCAAGCGCCATCTAC”, the binding signal (RPM ratio (pull-down/input)) was 2.86.

Turning to “GATGATTGTTCTCCCAGCTGATGAATTGAGCCTCTCGAGTAAACAAATTTTCCTAATCTTTCTGTTCAAGCGCCATCTAC”, the binding signal (RPM ratio (pull-down/input)) turned out to be 5.15.

Consider “GATGATTGTTCTCCCAGCTGATGAATTGTCTGAGTCGAGTAAACAAATTTTCCTAATCTTTCTGTTCAAGCGCCATCTAC”, for which the binding signal (RPM ratio (pull-down/input)) came to 0.254.

As for “GATGATTGTTCTCCCAGCTGATGAATTTATGGATTCGAGTAAACAAATTTTCCTAATCTTTCTGTTCAAGCGCCATCTAC”, the binding signal (RPM ratio (pull-down/input)) came out at 0.902.
